In PMC4336329 (PLoS ONE, 2015):
About 14,000 (4.5%) of roughly 310,000 compounds showed an effect of 50% or more. The effect is printed as a negative number. This is one part of the list.

Each compound was assayed against human ether-à-go-go-related gene (hERG) potassium channel (human, UniProt Q12809) (assay: primary screen, population patch clamp on CHO cells stably expressing hERG).
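Further: peak tail current of the secondary pulse compared with the same well before compound.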

human ether-à-go-go-related gene (hERG) potassium channel, sequence (Q12809 whole entry, looked up): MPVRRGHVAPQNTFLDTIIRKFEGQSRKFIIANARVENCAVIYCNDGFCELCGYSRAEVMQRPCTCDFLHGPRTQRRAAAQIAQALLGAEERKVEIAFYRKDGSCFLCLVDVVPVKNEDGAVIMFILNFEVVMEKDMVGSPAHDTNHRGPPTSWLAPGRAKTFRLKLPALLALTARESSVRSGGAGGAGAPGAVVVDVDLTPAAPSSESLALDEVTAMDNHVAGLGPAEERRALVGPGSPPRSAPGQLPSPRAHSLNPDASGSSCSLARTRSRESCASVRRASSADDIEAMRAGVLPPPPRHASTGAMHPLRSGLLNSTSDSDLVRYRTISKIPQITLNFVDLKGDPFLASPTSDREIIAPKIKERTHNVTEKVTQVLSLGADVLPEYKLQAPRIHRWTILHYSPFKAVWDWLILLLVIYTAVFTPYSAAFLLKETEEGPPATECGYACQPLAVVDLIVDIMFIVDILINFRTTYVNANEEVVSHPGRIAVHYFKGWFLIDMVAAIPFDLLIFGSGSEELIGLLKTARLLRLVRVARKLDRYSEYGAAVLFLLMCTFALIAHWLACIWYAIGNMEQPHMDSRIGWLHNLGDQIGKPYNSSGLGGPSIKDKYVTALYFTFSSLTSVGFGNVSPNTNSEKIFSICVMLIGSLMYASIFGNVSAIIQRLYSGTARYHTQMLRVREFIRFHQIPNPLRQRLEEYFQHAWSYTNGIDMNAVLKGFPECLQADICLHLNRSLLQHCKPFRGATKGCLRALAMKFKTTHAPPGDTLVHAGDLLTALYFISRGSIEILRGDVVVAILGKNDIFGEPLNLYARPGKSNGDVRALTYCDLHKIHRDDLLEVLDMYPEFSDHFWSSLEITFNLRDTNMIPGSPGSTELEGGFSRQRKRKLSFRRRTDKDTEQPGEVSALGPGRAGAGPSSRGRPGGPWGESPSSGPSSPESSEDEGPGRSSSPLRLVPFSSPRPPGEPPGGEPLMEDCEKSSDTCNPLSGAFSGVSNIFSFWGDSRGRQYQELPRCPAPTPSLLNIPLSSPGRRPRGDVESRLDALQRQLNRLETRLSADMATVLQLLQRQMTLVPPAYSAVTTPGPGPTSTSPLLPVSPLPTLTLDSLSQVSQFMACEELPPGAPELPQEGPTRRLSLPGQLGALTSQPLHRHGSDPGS

**Q.** CCOC(=O)N1CCN(C(=O)c2ccc(OCC)c(OCC)c2)CC1 was tested. Which “hERG current change (%, negative = inhibition) at 10uM” value did it give?
**A.** -9.83%

**Q.** How did the “hERG current change (%, negative = inhibition) at 10uM” value turn out when CC1CCCN(CC(=O)N2c3ccccc3Sc3ccccc32)C1 (stereo not drawn) was run?
**A.** 1.98%

**Q.** N#C/C(=C\c1ccc(Cl)cc1)C(=O)Nc1cccnc1 was tested. Which “hERG current change (%, negative = inhibition) at 10uM” value did it give?
**A.** 10.6%

**Q.** How did the “hERG current change (%, negative = inhibition) at 10uM” value turn out when CCOc1ccc(Nc2nc(N)c([N+](=O)[O-])c(N3CCN(C)CC3)n2)cc1 was run?
**A.** -48.3%

**Q.** Which “hERG current change (%, negative = inhibition) at 10uM” value does the source give for CN(C)c1ccc(/C=N/NC(=O)CN2CCCCC2)cc1Br here?
**A.** -32%

**Q.** Cc1ccc(C(=O)Nc2nnc(-c3ccco3)o2)cc1C was tested. Which “hERG current change (%, negative = inhibition) at 10uM” value did it give?
**A.** 3.36%

**Q.** For Cc1cc(C(C)(C)C)c(O)c(C(C)(C)C)c1, which “hERG current change (%, negative = inhibition) at 10uM” value is on record?
**A.** 17.2%

**Q.** How did the “hERG current change (%, negative = inhibition) at 10uM” value turn out when Cn1c(SCc2ccccc2F)nc2cccnc21 was run?
**A.** -17.4%

**Q.** With COc1cc(/C=C/C(=O)O)cc(S(=O)(=O)Nc2ccc3c(c2)CCC3)c1OC as the compound, how does the “hERG current change (%, negative = inhibition) at 10uM” value read?
**A.** 24.5%

**Q.** For COCCn1c(-c2ccc(Br)cc2)nc2oc3cc(OC)ccc3c(=O)c2c1=O, which “hERG current change (%, negative = inhibition) at 10uM” value is on record?
**A.** -14.7%

**Q.** With CCCn1nnc(NC(=O)c2sc3ccccc3c2Cl)n1 as the compound, how does the “hERG current change (%, negative = inhibition) at 10uM” value read?
**A.** -38.6%

**Q.** How did the “hERG current change (%, negative = inhibition) at 10uM” value turn out when CC(=O)c1sc(=S)n(Cc2ccccc2)c1C was run?
**A.** -41.6%

**Q.** Which “hERG current change (%, negative = inhibition) at 10uM” value does the source give for CC(=O)Nc1ccc(NC(=O)/C(=C/c2ccco2)NC(=O)c2ccccc2)cc1 here?
**A.** 2.2%

**Q.** Which “hERG current change (%, negative = inhibition) at 10uM” value does the source give for Cc1cccc(Nc2nnc(SCC(=O)Nc3cccnc3Cl)s2)c1 here?
**A.** -18.1%

**Q.** Which “hERG current change (%, negative = inhibition) at 10uM” value does the source give for Cc1ccc(/C=N/N2CCN(c3ccccc3)CC2)cc1 here?
**A.** 4.56%

**Q.** Cc1cc(=O)oc2c3c(ccc12)OC/C3=N/N was tested. Which “hERG current change (%, negative = inhibition) at 10uM” value did it give?
**A.** 16.4%

**Q.** How did the “hERG current change (%, negative = inhibition) at 10uM” value turn out when Cc1ccc(C(=O)COC(=O)CNS(=O)(=O)c2ccc(C)cc2)cc1 was run?
**A.** 12.4%

**Q.** For Cc1ccc(C2=NN(Cc3nnc(-c4ccccc4)o3)C(=O)SC2)cc1, which “hERG current change (%, negative = inhibition) at 10uM” value is on record?
**A.** -7.79%

**Q.** Which “hERG current change (%, negative = inhibition) at 10uM” value does the source give for OCC(CO)(CO)NCC(O)CN1c2ccccc2Sc2ccccc21 (stereo not drawn) here?
**A.** -11.1%

**Q.** For O=C(Nc1ccnn1C1CCN(C(=O)c2ccc(C(F)(F)F)cc2)CC1)C1CC1, which “hERG current change (%, negative = inhibition) at 10uM” value is on record?
**A.** -47.4%

**Q.** With COc1ccc(-c2cnnc(N/N=C/c3ccc(O)c(O)c3)n2)cc1 as the compound, how does the “hERG current change (%, negative = inhibition) at 10uM” value read?
**A.** 2.82%

**Q.** How did the “hERG current change (%, negative = inhibition) at 10uM” value turn out when Cc1ccc(N(C(=O)Nc2ccccc2)C2=NCC(C)S2)cc1 (stereo not drawn) was run?
**A.** -16.2%

**Q.** With COc1cccc(OCCNS(=O)(=O)c2cccc([N+](=O)[O-])c2)c1 as the compound, how does the “hERG current change (%, negative = inhibition) at 10uM” value read?
**A.** -8.19%

**Q.** COc1ccc(/C=C/C(=O)O)cc1S(=O)(=O)N1CCCc2ccccc21 was tested. Which “hERG current change (%, negative = inhibition) at 10uM” value did it give?
**A.** 28.3%

**Q.** Which “hERG current change (%, negative = inhibition) at 10uM” value does the source give for CCN(CC)c1ccc(Nc2cc3n(c(=O)n2)CCc2cc(OC)c(OC)cc2-3)cc1 here?
**A.** -28.6%

**Q.** How did the “hERG current change (%, negative = inhibition) at 10uM” value turn out when CC1Sc2ccc(S(=O)(=O)NCCc3ccc(S(N)(=O)=O)cc3)cc2NC1=O (stereo not drawn) was run?
**A.** 14.3%

**Q.** How did the “hERG current change (%, negative = inhibition) at 10uM” value turn out when N/C(=N\OC(=O)CCC1CCCC1)c1cccnc1 was run?
**A.** 2.61%

**Q.** Which “hERG current change (%, negative = inhibition) at 10uM” value does the source give for Cc1ccccc1C(=O)N1CCCC(N2CCN(Cc3ccc4c(c3)OCO4)CC2)C1 (stereo not drawn) here?
**A.** -11.7%

**Q.** CC(O)(CS(=O)(=O)Cc1cccc(C(F)(F)F)c1)C(=O)Nc1cccc(C(F)(F)F)c1 (stereo not drawn) was tested. Which “hERG current change (%, negative = inhibition) at 10uM” value did it give?
**A.** -10.4%

**Q.** For Cn1c(-c2ccccc2)cnc1SCC(=O)N1CCCc2ccccc21, which “hERG current change (%, negative = inhibition) at 10uM” value is on record?
**A.** -27.9%

**Q.** With COc1ccc(C(=O)c2c[nH]cc2-c2ccccc2)cc1 as the compound, how does the “hERG current change (%, negative = inhibition) at 10uM” value read?
**A.** 35.9%

**Q.** With CCCc1nnc(NC(=O)C2CCCO2)s1 (stereo not drawn) as the compound, how does the “hERG current change (%, negative = inhibition) at 10uM” value read?
**A.** -0.285%

**Q.** For Cn1cnc([N+](=O)[O-])c1NC(C)(C)C, which “hERG current change (%, negative = inhibition) at 10uM” value is on record?
**A.** 1.97%

**Q.** How did the “hERG current change (%, negative = inhibition) at 10uM” value turn out when N#CC1=C(N)OC2=C(C(=O)CC(c3ccccc3)C2)C1c1cccnc1 (stereo not drawn) was run?
**A.** -47.3%

**Q.** For CN(C)C(=O)CSc1nnc(CCCCCNC(=O)OC(C)(C)C)o1, which “hERG current change (%, negative = inhibition) at 10uM” value is on record?
**A.** -2.33%

**Q.** How did the “hERG current change (%, negative = inhibition) at 10uM” value turn out when COc1cc(N/C=C2\CC(=O)NC(C)=C2C#N)cc(OC)c1OC was run?
**A.** 19.6%

**Q.** How did the “hERG current change (%, negative = inhibition) at 10uM” value turn out when CC(=O)c1cccc(NC(=O)N2CCCC2C(=O)Nc2cccc(C)c2)c1 (stereo not drawn) was run?
**A.** -6.43%

**Q.** With O=C(CN1CCOCC1)Nc1ccc(C2CCCCC2)cc1 as the compound, how does the “hERG current change (%, negative = inhibition) at 10uM” value read?
**A.** -6.95%

**Q.** Which “hERG current change (%, negative = inhibition) at 10uM” value does the source give for CCN1CCCC(NC(=O)c2cc([N+](=O)[O-])ccc2OC)C1.Cl.O (stereo not drawn) here?
**A.** -11.8%

**Q.** How did the “hERG current change (%, negative = inhibition) at 10uM” value turn out when Cc1nnc(-c2cnn(C)c2N)n1Cc1ccccc1 was run?
**A.** -14.1%

**Q.** Which “hERG current change (%, negative = inhibition) at 10uM” value does the source give for CCOC(=O)Cc1csc(NC(=S)NC(=O)CC(C)C)n1 here?
**A.** 5.15%

**Q.** How did the “hERG current change (%, negative = inhibition) at 10uM” value turn out when COc1ccc(CCNC(=O)C(=O)NCc2ccccc2C)cc1OC was run?
**A.** 7.98%

**Q.** With COc1ccc(CCN2CC(C(=O)NCCc3ccccc3C(F)(F)F)CCC2=O)cc1 (stereo not drawn) as the compound, how does the “hERG current change (%, negative = inhibition) at 10uM” value read?
**A.** -46.6%

**Q.** How did the “hERG current change (%, negative = inhibition) at 10uM” value turn out when CC(C)(C)OC(=O)N1CCC(c2c(C(=O)N3CCN(C4CCCCC4)CC3)cnn2-c2ccccc2)CC1 was run?
**A.** -54.7%

**Q.** Which “hERG current change (%, negative = inhibition) at 10uM” value does the source give for O=c1c2ccccc2nc(COc2ccccc2)n1/N=C/c1ccc(O)cc1O here?
**A.** 46.1%

**Q.** COc1cccc(NC(=O)CCN2CCN(C)CC2)c1 was tested. Which “hERG current change (%, negative = inhibition) at 10uM” value did it give?
**A.** -2.53%

**Q.** For COC(=O)C1=C(NC(C)=O)CCS1, which “hERG current change (%, negative = inhibition) at 10uM” value is on record?
**A.** 27%

**Q.** For CCOc1cc(C(=O)Nc2cc(OC)cc(OC)c2)ccc1OCC(=O)N1CCOCC1, which “hERG current change (%, negative = inhibition) at 10uM” value is on record?
**A.** -14.7%

**Q.** For FC(F)Oc1ccc(NC(=S)NCc2ccco2)cc1Cl, which “hERG current change (%, negative = inhibition) at 10uM” value is on record?
**A.** -2.04%

**Q.** O=C(O)c1ccc(/C=C2\SC(=Nc3ccccc3)N(c3ccccc3)C2=O)cc1 was tested. Which “hERG current change (%, negative = inhibition) at 10uM” value did it give?
**A.** 50.1%

**Q.** Cc1ccc(NC(=O)C(C)OC(=O)c2ccc(Cl)nc2)cc1S(=O)(=O)N1CCOCC1 (stereo not drawn) was tested. Which “hERG current change (%, negative = inhibition) at 10uM” value did it give?
**A.** -34.7%

**Q.** With CC(C)(C)c1ccccc1OCCCCCNCCO as the compound, how does the “hERG current change (%, negative = inhibition) at 10uM” value read?
**A.** -18.5%

**Q.** How did the “hERG current change (%, negative = inhibition) at 10uM” value turn out when O=C(O)C(=O)O.O=[N+]([O-])c1ccc(CNCCc2ccccc2)cc1 was run?
**A.** -44.4%

**Q.** For CN(C(=O)CSc1ncnc2sccc12)C1CCCCC1, which “hERG current change (%, negative = inhibition) at 10uM” value is on record?
**A.** -17.4%

**Q.** CC(C)(C)OC(=O)N1CCN(C(=O)c2ncn(Cc3ccccc3)c2C(=O)N2CCN(C(=O)OC(C)(C)C)CC2)CC1 was tested. Which “hERG current change (%, negative = inhibition) at 10uM” value did it give?
**A.** 6.2%

**Q.** How did the “hERG current change (%, negative = inhibition) at 10uM” value turn out when COc1cc(/C=N/NC(=O)c2cccc(C(=O)N/N=C/c3ccc(O)c(OC)c3)n2)ccc1O was run?
**A.** 20.9%

**Q.** Which “hERG current change (%, negative = inhibition) at 10uM” value does the source give for COc1cc(/C=N/NC(=O)c2ccncc2)ccc1OC(=O)c1cc(OC)c(OC)c(OC)c1 here?
**A.** 1.56%
